# From the supplement of paper PMC8728848
# Some of the results follow.
# B1: Crocus Lectin (Crocus vernus), Q9FVA1 (protein)
# chain: MAKSLVLSSLLLALLLAAPLASLADNNVLLTGDVLHTDNQLSFESAAFVMQGDCNLVLYNEAGGFQSNTHGRGVGCTLRLNNFGQLEIHSANSNTPVWVSLRNGIPVRGDYAAVLGPDQHVTIYGPAIWSTPAPNRHERGATVSNIPRVRNVLFSSQVMSDNAQLATRDYSLVMRDDCNLALTKGSKTNIVWESGTSGRGQHCFMRLGHTGLIEISDDRLNTVWRSNTVGQEGDYVLILQINGQAVVYGPAVWSTASPARGGASAAL
# Key:
# Experiment in all cases: glycan array binding signal (z-score within array); higher = stronger binding
# Details in all cases: glycan notation: IUPAC condensed, linker removed
# [1] = biological target: Neu5Ac(a2-3)Gal(b1-4)GlcNAc6S
# Outline: (§1)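 The Consortium for Functional Glycomics database supplied 3228 glycan arrays, of which those lacking an available protein sequence were dropped. The binding signal, a within-array Z-score, was averaged across arrays of the same protein sequence and across linkers. Negative scores can be read as non-binding.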
# [2] = biological target: Neu5Ac(a2-3)Gal(b1-4)[Fuc(a1-3)]GlcNAc
# Outline: as §1
# [3] = biological target: Neu5Ac(a2-3)Gal(b1-4)[Fuc(a1-3)]GlcNAc(b1-3)Gal
# Outline: as §1
# [4] = biological target: Neu5Ac(a2-3)Gal(b1-4)[Fuc(a1-3)]GlcNAc(b1-3)Gal(b1-4)GlcNAc
# Outline: as §1
# [5] = biological target: Neu5Ac(a2-3)Gal(b1-4)[Fuc(a1-3)]GlcNAc(b1-3)Gal(b1-4)[Fuc(a1-3)]GlcNAc(b1-3)Gal(b1-4)[Fuc(a1-3)]GlcNAc
# Outline: as §1
# [6] = biological target: Neu5Ac(a2-3)Gal(b1-4)[Fuc(a1-3)]GlcNAc6S
# Outline: as §1
# [7] = biological target: Neu5Ac(a2-3)Gal6S(b1-4)GlcNAc
# Outline: as §1
# [8] = biological target: Neu5Ac(a2-3)Gal6S(b1-4)[Fuc(a1-3)]GlcNAc
# Outline: as §1
# Neu5Ac(a2-3)GalNAc = biological target: Neu5Ac(a2-3)GalNAc
# Outline: as §1
# [9] = biological target: Neu5Ac(a2-3)GalNAc(b1-4)GlcNAc
# Outline: as §1
# [10] = biological target: Neu5Ac(a2-3)[GalNAc(b1-4)]Gal(b1-4)Glc
# Outline: as §1
# [11] = biological target: Neu5Ac(a2-3)[GalNAc(b1-4)]Gal(b1-4)GlcNAc
# Outline: as §1
# [12] = biological target: Neu5Ac(a2-3)[Neu5Ac(a2-6)]GalNAc
# Outline: as §1
# [13] = biological target: Neu5Ac(a2-6)Gal(b1-4)GlcNAc
# Outline: as §1
# [14] = biological target: Neu5Ac(a2-6)Gal(b1-4)GlcNAc(b1-2)Man(a1-3)[Neu5Ac(a2-6)Gal(b1-4)GlcNAc(b1-2)Man(a1-6)]Man(b1-4)GlcNAc(b1-4)GlcNAc
# Outline: as §1
# [15] = biological target: Neu5Ac(a2-6)Gal(b1-4)GlcNAc(b1-3)Gal(b1-4)GlcNAc
# Outline: as §1
# [16] = biological target: Neu5Ac(a2-6)Gal(b1-4)GlcNAc(b1-3)Gal(b1-4)[Fuc(a1-3)]GlcNAc(b1-3)Gal(b1-4)[Fuc(a1-3)]GlcNAc
# Outline: as §1
# [17] = biological target: Neu5Ac(a2-6)Gal(b1-4)GlcNAc6S
# Outline: as §1
# Neu5Ac(a2-6)GalNAc = biological target: Neu5Ac(a2-6)GalNAc
# Outline: as §1
# [18] = biological target: Neu5Ac(a2-6)GalNAc(b1-4)GlcNAc
# Outline: as §1
# Neu5Ac(a2-8)Neu5Ac = biological target: Neu5Ac(a2-8)Neu5Ac
# Outline: as §1
# [19] = biological target: Neu5Ac(a2-8)Neu5Ac(a2-3)Gal(b1-4)Glc
# Outline: as §1
# [20] = biological target: Neu5Ac(a2-8)Neu5Ac(a2-3)[GalNAc(b1-4)]Gal(b1-4)Glc
# Outline: as §1
# [21] = biological target: Neu5Ac(a2-8)Neu5Ac(a2-8)Neu5Ac
# Outline: as §1
# [22] = biological target: Neu5Ac(a2-8)Neu5Ac(a2-8)Neu5Ac(a2-3)Gal(b1-4)Glc
# Outline: as §1
# [23] = biological target: Neu5Ac(a2-8)Neu5Ac(a2-8)Neu5Ac(a2-3)[GalNAc(b1-4)]Gal(b1-4)Glc
# Outline: as §1
# [24] = biological target: Neu5Ac(a2-8)Neu5Ac(a2-8)Neu5Ac(a2-8)Neu5Ac(a2-3)[GalNAc(b1-4)]Gal(b1-4)Glc
# Outline: as §1
# [25] = biological target: Neu5Ac9Ac(a2-6)Gal(b1-4)GlcNAc
# Outline: as §1
# [26] = biological target: Neu5Gc(a2-3)Gal(b1-3)GlcNAc
# Outline: as §1
# [27] = biological target: Neu5Gc(a2-3)Gal(b1-3)[Fuc(a1-4)]GlcNAc
# Outline: as §1
# Neu5Gc(a2-3)Gal(b1-4)Glc = biological target: Neu5Gc(a2-3)Gal(b1-4)Glc
# Outline: as §1
# [28] = biological target: Neu5Gc(a2-3)Gal(b1-4)GlcNAc
# Outline: as §1
# [29] = biological target: Neu5Gc(a2-3)Gal(b1-4)[Fuc(a1-4)]GlcNAc
# Outline: as §1
# [30] = biological target: Neu5Gc(a2-6)Gal(b1-4)GlcNAc
# Outline: as §1
# Neu5Gc(a2-6)GalNAc = biological target: Neu5Gc(a2-6)GalNAc
# Outline: as §1
binder,measurement,setting,value
B1,glycan array binding signal (z-score),[1],-0.177
same,glycan array binding signal (z-score),[2],-0.195
same,glycan array binding signal (z-score),[3],-0.183
same,glycan array binding signal (z-score),[4],-0.17
same,glycan array binding signal (z-score),[5],-0.152
same,glycan array binding signal (z-score),[6],-0.195
same,glycan array binding signal (z-score),[7],-0.187
same,glycan array binding signal (z-score),[8],-0.197
same,glycan array binding signal (z-score),Neu5Ac(a2-3)GalNAc,-0.173
same,glycan array binding signal (z-score),[9],-0.181
same,glycan array binding signal (z-score),[10],-0.157
same,glycan array binding signal (z-score),[11],-0.181
same,glycan array binding signal (z-score),[12],-0.189
same,glycan array binding signal (z-score),[13],-0.178
same,glycan array binding signal (z-score),[14],-0.049
same,glycan array binding signal (z-score),[15],-0.174
same,glycan array binding signal (z-score),[16],-0.119
same,glycan array binding signal (z-score),[17],-0.168
same,glycan array binding signal (z-score),Neu5Ac(a2-6)GalNAc,-0.179
same,glycan array binding signal (z-score),[18],-0.186
same,glycan array binding signal (z-score),Neu5Ac(a2-8)Neu5Ac,-0.194
same,glycan array binding signal (z-score),[19],-0.184
same,glycan array binding signal (z-score),[20],-0.184
same,glycan array binding signal (z-score),[21],-0.172
same,glycan array binding signal (z-score),[22],-0.123
same,glycan array binding signal (z-score),[23],-0.176
same,glycan array binding signal (z-score),[24],-0.197
same,glycan array binding signal (z-score),[25],-0.167
same,glycan array binding signal (z-score),[26],-0.2
same,glycan array binding signal (z-score),[27],-0.16
same,glycan array binding signal (z-score),Neu5Gc(a2-3)Gal(b1-4)Glc,-0.203
same,glycan array binding signal (z-score),[28],-0.173
same,glycan array binding signal (z-score),[29],-0.185
same,glycan array binding signal (z-score),[30],-0.194
same,glycan array binding signal (z-score),Neu5Gc(a2-6)GalNAc,-0.197
